Results are given in words; binding and its absence hold for the method and conditions named. In cells and extracts the contact can be indirect. Some binding calls cover weakened binding; strength is not graded here. Sequences can lack the tags named with a protein.
Columns and labels:
[1] = target: T1, Recombinant human GST-tagged Lypd6 (LY6/PLAUR domain-containing 6) (human) (UniProt Q86Y78); experiment: pull-down; recombinant human GST-Lypd6 covalently coupled to NHS magnetic beads as bait; 700-1000 μg protein of 2% Triton X-100 extract of human temporal cortex membranes, 18-22 h at 4°C in lysis buffer (50 mM Tris, 50 mM NaCl, 5 mM EDTA, 5 mM EGTA, pH 7.5); washes with 1 M NaCl and 0.1 M NaCl, 0.5% Triton X-100; western blot; non-coupled beads as control; only the target purified
T1 sequence: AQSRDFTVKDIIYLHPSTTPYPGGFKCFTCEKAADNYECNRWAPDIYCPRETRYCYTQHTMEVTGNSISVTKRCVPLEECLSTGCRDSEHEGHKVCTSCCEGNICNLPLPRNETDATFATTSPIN

The chains behind the UniProt entries cited, without tags or fusion partners. Where a name states a change or a piece, a line headed by the entry shows the natural chain unless it says otherwise. Residues count along the entry.
UniProt P32297, residues 32-505: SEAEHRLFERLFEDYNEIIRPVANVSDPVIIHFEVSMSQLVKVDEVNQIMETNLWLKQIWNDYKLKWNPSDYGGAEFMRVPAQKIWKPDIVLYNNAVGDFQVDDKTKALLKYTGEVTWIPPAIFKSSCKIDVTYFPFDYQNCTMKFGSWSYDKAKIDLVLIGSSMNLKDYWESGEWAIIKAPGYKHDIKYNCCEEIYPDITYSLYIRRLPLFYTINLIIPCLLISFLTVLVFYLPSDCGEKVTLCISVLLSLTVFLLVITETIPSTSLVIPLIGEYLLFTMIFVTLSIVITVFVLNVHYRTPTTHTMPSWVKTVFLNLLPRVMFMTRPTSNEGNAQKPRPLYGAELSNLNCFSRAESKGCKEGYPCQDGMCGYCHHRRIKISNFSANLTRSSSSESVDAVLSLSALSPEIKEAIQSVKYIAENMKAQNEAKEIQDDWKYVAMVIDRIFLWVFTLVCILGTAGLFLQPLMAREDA
UniProt P30532, residues 23-468: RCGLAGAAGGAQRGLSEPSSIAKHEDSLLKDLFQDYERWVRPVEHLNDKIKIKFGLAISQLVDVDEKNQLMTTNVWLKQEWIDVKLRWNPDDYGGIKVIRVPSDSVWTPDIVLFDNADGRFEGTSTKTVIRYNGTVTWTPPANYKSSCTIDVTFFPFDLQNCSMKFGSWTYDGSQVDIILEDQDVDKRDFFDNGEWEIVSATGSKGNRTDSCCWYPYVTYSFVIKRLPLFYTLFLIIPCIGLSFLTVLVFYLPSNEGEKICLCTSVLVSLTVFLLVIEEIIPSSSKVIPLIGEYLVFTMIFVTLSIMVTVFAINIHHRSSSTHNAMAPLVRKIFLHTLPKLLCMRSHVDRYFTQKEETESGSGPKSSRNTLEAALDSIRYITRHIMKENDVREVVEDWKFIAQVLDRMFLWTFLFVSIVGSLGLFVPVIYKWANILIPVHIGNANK
UniProt P36544, residues 23-502: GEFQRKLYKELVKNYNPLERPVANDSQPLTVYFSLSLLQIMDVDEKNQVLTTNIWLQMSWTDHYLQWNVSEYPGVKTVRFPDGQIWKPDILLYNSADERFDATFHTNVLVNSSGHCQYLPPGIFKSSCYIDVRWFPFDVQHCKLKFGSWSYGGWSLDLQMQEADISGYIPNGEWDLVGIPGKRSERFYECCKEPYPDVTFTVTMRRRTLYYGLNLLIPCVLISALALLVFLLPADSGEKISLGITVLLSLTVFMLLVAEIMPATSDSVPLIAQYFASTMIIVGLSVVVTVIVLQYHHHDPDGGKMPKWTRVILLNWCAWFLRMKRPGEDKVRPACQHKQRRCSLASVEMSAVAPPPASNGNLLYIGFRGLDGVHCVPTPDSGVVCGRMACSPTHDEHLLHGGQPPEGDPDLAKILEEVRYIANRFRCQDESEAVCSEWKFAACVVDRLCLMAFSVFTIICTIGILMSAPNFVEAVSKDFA
UniProt P49582, residues 23-502: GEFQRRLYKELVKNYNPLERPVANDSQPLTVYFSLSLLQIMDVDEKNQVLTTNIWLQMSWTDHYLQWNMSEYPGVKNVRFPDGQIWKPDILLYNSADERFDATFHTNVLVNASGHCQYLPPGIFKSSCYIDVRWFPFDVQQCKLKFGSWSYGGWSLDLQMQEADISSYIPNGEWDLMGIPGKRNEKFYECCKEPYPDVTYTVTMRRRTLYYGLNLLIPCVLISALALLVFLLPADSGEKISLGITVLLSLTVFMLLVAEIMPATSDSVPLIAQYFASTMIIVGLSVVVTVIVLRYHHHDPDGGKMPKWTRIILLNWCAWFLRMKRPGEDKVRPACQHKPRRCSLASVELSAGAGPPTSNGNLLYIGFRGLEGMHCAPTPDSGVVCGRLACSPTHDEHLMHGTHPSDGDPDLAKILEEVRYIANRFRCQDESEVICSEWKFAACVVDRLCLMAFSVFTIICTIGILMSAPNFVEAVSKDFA
UniProt Q8R493, residues 21-495: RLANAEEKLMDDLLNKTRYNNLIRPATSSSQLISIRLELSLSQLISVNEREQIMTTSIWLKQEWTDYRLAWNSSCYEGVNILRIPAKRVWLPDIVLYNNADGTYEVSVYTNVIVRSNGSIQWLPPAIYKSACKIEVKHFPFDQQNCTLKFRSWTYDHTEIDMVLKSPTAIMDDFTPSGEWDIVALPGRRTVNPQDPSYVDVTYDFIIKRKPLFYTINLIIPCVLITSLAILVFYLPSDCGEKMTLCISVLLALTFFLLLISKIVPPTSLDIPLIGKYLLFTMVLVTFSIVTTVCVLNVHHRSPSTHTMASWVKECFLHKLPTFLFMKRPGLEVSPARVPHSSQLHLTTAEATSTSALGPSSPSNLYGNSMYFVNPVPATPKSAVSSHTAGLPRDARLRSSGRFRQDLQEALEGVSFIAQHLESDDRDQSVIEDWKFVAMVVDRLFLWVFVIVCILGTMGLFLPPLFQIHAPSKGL
UniProt P42262, residues 25-883: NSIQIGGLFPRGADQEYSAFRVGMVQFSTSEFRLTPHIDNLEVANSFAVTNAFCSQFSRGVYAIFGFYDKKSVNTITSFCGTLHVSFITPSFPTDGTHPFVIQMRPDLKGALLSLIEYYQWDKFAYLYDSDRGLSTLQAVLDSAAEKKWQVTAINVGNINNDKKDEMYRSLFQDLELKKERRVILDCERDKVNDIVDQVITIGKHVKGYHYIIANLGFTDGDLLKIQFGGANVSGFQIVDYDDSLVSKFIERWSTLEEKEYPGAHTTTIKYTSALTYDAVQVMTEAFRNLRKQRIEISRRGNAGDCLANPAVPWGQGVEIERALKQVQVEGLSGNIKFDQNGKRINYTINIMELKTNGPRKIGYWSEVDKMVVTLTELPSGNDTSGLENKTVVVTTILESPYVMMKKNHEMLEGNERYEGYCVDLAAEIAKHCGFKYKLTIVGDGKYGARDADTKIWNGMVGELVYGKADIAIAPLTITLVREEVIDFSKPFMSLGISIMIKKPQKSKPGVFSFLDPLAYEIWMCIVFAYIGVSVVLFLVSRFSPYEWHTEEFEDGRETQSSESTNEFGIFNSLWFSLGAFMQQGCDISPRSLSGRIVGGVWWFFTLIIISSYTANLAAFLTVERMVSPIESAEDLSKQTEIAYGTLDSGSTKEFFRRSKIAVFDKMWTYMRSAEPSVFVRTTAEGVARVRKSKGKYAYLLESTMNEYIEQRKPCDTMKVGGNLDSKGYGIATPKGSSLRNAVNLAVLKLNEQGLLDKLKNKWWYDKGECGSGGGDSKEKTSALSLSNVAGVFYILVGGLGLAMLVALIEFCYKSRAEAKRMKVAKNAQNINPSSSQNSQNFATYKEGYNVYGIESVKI
UniProt P43681, residues 27-627: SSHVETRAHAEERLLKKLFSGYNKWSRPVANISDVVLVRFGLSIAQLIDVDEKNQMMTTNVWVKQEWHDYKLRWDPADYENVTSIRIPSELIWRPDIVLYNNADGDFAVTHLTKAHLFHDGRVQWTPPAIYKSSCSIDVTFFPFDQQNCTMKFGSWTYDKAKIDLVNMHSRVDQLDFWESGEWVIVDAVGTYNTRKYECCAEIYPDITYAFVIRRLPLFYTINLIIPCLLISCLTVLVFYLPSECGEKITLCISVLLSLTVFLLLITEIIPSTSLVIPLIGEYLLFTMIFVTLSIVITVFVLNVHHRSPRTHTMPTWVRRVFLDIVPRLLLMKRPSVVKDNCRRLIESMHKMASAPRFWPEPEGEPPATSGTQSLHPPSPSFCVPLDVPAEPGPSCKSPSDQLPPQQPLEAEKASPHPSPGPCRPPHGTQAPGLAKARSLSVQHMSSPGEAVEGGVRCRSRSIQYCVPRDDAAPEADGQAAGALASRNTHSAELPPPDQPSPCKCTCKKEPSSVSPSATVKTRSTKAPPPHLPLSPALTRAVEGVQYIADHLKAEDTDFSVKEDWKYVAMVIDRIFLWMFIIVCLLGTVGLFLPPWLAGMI
UniProt Q15825, residues 26-494: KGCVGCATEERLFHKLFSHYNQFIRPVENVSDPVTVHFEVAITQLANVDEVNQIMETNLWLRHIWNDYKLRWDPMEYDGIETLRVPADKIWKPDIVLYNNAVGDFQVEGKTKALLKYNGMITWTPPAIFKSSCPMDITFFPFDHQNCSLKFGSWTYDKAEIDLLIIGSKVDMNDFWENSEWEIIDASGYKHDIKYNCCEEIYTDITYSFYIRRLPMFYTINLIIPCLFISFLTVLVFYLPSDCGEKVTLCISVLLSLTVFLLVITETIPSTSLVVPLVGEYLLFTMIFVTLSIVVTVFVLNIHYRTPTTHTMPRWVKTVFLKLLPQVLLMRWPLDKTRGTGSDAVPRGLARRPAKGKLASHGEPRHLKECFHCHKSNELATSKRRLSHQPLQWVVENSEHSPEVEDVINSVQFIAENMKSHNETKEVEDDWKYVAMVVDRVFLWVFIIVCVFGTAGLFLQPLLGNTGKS
UniProt P17787, residues 26-502: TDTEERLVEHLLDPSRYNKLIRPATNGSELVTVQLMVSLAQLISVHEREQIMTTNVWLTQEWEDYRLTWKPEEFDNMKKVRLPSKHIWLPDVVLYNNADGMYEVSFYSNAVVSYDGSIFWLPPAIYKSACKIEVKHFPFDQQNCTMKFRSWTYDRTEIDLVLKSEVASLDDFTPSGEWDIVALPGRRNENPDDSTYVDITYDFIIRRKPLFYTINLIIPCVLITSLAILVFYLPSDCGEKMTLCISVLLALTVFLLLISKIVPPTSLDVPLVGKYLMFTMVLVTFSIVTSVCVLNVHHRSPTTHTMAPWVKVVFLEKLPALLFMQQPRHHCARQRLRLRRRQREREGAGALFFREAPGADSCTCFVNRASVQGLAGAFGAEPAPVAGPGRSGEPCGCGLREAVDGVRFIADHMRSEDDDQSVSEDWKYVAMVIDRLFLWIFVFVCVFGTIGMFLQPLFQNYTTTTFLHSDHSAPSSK
UniProt Q9ERK7: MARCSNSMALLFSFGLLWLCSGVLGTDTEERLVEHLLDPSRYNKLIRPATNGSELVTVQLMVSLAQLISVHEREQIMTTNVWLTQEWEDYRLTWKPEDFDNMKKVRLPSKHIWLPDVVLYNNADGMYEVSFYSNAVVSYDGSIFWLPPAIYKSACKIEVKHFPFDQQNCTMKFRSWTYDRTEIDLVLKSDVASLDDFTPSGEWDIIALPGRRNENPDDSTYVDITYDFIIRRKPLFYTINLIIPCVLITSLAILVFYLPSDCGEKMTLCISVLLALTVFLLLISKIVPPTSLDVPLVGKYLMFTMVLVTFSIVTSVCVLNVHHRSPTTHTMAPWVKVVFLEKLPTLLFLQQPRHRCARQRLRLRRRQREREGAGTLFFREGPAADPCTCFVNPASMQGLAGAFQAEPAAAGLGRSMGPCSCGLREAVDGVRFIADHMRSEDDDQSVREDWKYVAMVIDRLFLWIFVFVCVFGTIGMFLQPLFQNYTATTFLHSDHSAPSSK
UniProt P30926, residues 22-498: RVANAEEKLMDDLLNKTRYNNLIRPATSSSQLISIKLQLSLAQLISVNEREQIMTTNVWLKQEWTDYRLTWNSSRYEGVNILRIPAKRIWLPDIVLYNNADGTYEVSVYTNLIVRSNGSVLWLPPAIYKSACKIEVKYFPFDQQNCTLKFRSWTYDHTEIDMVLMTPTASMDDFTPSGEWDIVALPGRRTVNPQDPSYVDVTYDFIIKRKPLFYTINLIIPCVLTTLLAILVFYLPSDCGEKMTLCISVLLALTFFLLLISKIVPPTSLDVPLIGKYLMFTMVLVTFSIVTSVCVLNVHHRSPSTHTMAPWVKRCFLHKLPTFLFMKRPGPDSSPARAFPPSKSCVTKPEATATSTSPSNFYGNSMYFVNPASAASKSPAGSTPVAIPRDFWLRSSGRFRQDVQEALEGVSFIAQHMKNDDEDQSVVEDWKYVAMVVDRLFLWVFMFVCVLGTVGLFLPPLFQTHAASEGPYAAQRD

[2] = target: T1, Recombinant human GST-tagged Lypd6 (LY6/PLAUR domain-containing 6) (human); experiment: pull-down; only the target purified
[3] = target: T1, Recombinant human GST-tagged Lypd6 (LY6/PLAUR domain-containing 6) (human); experiment: pull-down; human recombinant Lypd6-coupled beads on cortical tissue of wild-type and α7, β2 or β4 knockout mice; western blot (Fig. S3); only the target purified

Row | binding [1] | binding [2] | binding [3] | Substance
1 | binds | binds | – | α3 nAChR subunit (human temporal cortex) (from UniProt P32297 32-505) (receptor)
2 | binds | binds | – | α5 nAChR subunit (human temporal cortex) (from UniProt P30532 23-468) (receptor)
3 | binds | – | – | α7 nAChR subunit (human temporal cortex) (from UniProt P36544 23-502) (receptor)
4 | – | – | binds | α7 nAChR subunit (mouse cortical tissue) (from UniProt P49582 23-502) (receptor)
5 | – | – | binds | β4 nAChR subunit (mouse cortical tissue) (from UniProt Q8R493 21-495) (receptor)

Second part, the substance before the results:

Row | Substance | binding [1] | binding [2] | binding [3]
6 | GluR2 AMPA receptor subunit (human temporal cortex) (from UniProt P42262 25-883) | no binding | – | –
7 | α4 nAChR subunit (human temporal cortex) (from UniProt P43681 27-627) (receptor) | binds | binds | –
8 | α6 nAChR subunit (human temporal cortex) (from UniProt Q15825 26-494) (receptor) | binds | binds | –
9 | β2 nAChR subunit (human temporal cortex) (from UniProt P17787 26-502) (receptor) | binds | binds | –
10 | β2 nAChR subunit (mouse cortical tissue) (from UniProt Q9ERK7 26-501) (receptor) | – | – | binds
11 | β4 nAChR subunit (human temporal cortex) (from UniProt P30926 22-498) (receptor) | binds | binds | –

Reference: PMC5017906
